{"source": "the RNAGym collection of RNA variant scans (doi:10.1073/pnas.2313332121)", "parents": {"B1": {"name": "TPR 5TU (parent)", "chain": "GGAUCUUCUCGAUCUAACAAAAAAGACAAAUCUGCCACAAAGCUUGAGAGCAUCUUCGGAUGCAGAGGCGGCAGCCUUCGGUGGCGCGAUAGCGCCAACGUUCUCAACUAUGACACGCAAAACGCGUGCUCCGUUGAAUGGAGUUUAUCAUG"}}, "note": "This sample is rich in variants without activity."}
{"variants_of": "B1", "assay": "polymerase ribozyme fitness, log enrichment relative to wild type (log ratio); higher = more active; in vitro selection for triplet polymerase activity", "method_in_brief": "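After PCR construction and transcription, each subunit's mutant library from a heterodimeric triplet polymerase ribozyme was annealed with a biotinylated primer, the partner subunit and triplets. Incubation was frozen, at −7 °C, and extended constructs were gel-excised, bound to streptavidin beads and amplified by RT-PCR, in one selection round done in triplicate. Fitness is the logarithm of a genotype's enrichment divided by that of the wild type, from inverse-variance-weighted replicate averages of Illumina-sequenced inputs and outputs. The base of the logarithm is 2, and genotypes needed ≥10 input reads and ≥1 read per output.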"}
{"variant": "G25C C36A A91C G94U A97C A122C", "polymerase ribozyme fitness (log ratio)": "≤ -4.2"}
{"variant": "G25C C38A C72G U109G", "polymerase ribozyme fitness (log ratio)": "≤ -4.2"}
{"variant": "G25C C51A U55A C93U G136A", "polymerase ribozyme fitness (log ratio)": "≤ -4.2"}
{"variant": "G25C C57A C87U A97G", "polymerase ribozyme fitness (log ratio)": -3.23}
{"variant": "G25C C57U C123A C125G", "polymerase ribozyme fitness (log ratio)": -2.33}
{"variant": "G25C C63U A66C A73G G83A A107G A150U", "polymerase ribozyme fitness (log ratio)": "≤ -4.2"}
{"variant": "G25C C75A C93G C125U", "polymerase ribozyme fitness (log ratio)": "≤ -4.2"}
{"variant": "G25C C76U C93U G136U", "polymerase ribozyme fitness (log ratio)": "≤ -4.2"}
{"variant": "G25C C93U", "polymerase ribozyme fitness (log ratio)": -3.59}
{"variant": "G25C G46C C85G C87U G124C C125U U146C", "polymerase ribozyme fitness (log ratio)": "≤ -4.2"}
{"variant": "G25C G48A C85U G86U A89C U134A", "polymerase ribozyme fitness (log ratio)": "≤ -4.2"}
{"variant": "G25C G50A C85U A91U G92C C99A U101G U102C C125G", "polymerase ribozyme fitness (log ratio)": "≤ -4.2"}
{"variant": "G25C G62U C87A A137C", "polymerase ribozyme fitness (log ratio)": "≤ -4.2"}
{"variant": "G25C G68A", "polymerase ribozyme fitness (log ratio)": "≤ -4.2"}
{"variant": "G25C G68C C93A C99G C114U", "polymerase ribozyme fitness (log ratio)": "≤ -4.2"}
{"variant": "G25C U44C G59A G84U C93G C103G", "polymerase ribozyme fitness (log ratio)": "≤ -4.2"}
{"variant": "G25C U55G U56A G62C A73U C79G C93G C103A", "polymerase ribozyme fitness (log ratio)": "≤ -4.2"}
{"variant": "G25C U56A U104C A106U A113G U139G U145A", "polymerase ribozyme fitness (log ratio)": "≤ -4.2"}
{"variant": "G25U A26C A41U G68C C87U C95G C96U G100A U151A", "polymerase ribozyme fitness (log ratio)": "≤ -4.2"}
{"variant": "G25U A26C A49G U61A C76U U104A C114U A119C", "polymerase ribozyme fitness (log ratio)": "≤ -4.2"}
{"variant": "G25U A28C G48C U56A G68C G83U G140U", "polymerase ribozyme fitness (log ratio)": "≤ -4.2"}
{"variant": "G25U A29G", "polymerase ribozyme fitness (log ratio)": "≤ -4.2"}
{"variant": "G25U A29G C51U G67A C87G G112U G141C U148A", "polymerase ribozyme fitness (log ratio)": "≤ -4.2"}
{"variant": "G25U A30U C35A G50A C96U A107U", "polymerase ribozyme fitness (log ratio)": "≤ -4.2"}
{"variant": "G25U A39C G70U C85A C116G", "polymerase ribozyme fitness (log ratio)": "≤ -4.2"}
{"variant": "G25U A39G U61A U77A C87U G141A U151A", "polymerase ribozyme fitness (log ratio)": "≤ -4.2"}
{"variant": "G25U A40U G42A C43A C63A A64C C79G C93A A106G", "polymerase ribozyme fitness (log ratio)": "≤ -4.2"}
{"variant": "G25U A41U A66U G71A G83A G141C", "polymerase ribozyme fitness (log ratio)": "≤ -4.2"}
{"variant": "G25U A47G A60G C75A A91U A122U G141C A142G", "polymerase ribozyme fitness (log ratio)": "≤ -4.2"}
{"variant": "G25U A49C G68U G84A C87G A89U G94C C114A U148G", "polymerase ribozyme fitness (log ratio)": "≤ -4.2"}
{"variant": "G25U A49U G67C C95A A119U A150U", "polymerase ribozyme fitness (log ratio)": "≤ -4.2"}
{"variant": "G25U A49U U55A A91U", "polymerase ribozyme fitness (log ratio)": "≤ -4.2"}
{"variant": "G25U A52G G74A G88A G140A", "polymerase ribozyme fitness (log ratio)": "≤ -4.2"}
{"variant": "G25U A66U C93U G94U C125A G126U", "polymerase ribozyme fitness (log ratio)": "≤ -4.2"}
{"variant": "G25U A89C", "polymerase ribozyme fitness (log ratio)": -3.41}
{"variant": "G25U A89U C96G G100A U102C C118A A119G", "polymerase ribozyme fitness (log ratio)": "≤ -4.2"}
{"variant": "G25U C32G G67C U90C G94U U151A", "polymerase ribozyme fitness (log ratio)": "≤ -4.2"}
{"variant": "G25U C32U C36A C85U C114U C129U U134C", "polymerase ribozyme fitness (log ratio)": "≤ -4.2"}
{"variant": "G25U C32U G67A C96A U139C", "polymerase ribozyme fitness (log ratio)": "≤ -4.2"}
{"variant": "G25U C54G U82G G92U U148A", "polymerase ribozyme fitness (log ratio)": "≤ -4.2"}
{"variant": "G25U C57A U90G A91G C95A C105G C125U", "polymerase ribozyme fitness (log ratio)": "≤ -4.2"}
{"variant": "G25U C76A G92U G133A G140A", "polymerase ribozyme fitness (log ratio)": "≤ -4.2"}
{"variant": "G25U C85U C116G A120U G141C", "polymerase ribozyme fitness (log ratio)": "≤ -4.2"}
{"variant": "G25U C85U U101C", "polymerase ribozyme fitness (log ratio)": -2.41}
{"variant": "G25U C132U", "polymerase ribozyme fitness (log ratio)": -2.32}
{"variant": "G25U G42C U55A C87G A91C C93A G126U", "polymerase ribozyme fitness (log ratio)": "≤ -4.2"}
{"variant": "G25U G48A G84A C96G", "polymerase ribozyme fitness (log ratio)": -4.04}
{"variant": "G25U G81C C93U U135A", "polymerase ribozyme fitness (log ratio)": "≤ -4.2"}
{"variant": "G25U G83A", "polymerase ribozyme fitness (log ratio)": -3.4}
{"variant": "G25U G84A C131U G136A U144G", "polymerase ribozyme fitness (log ratio)": -1.89}
{"variant": "G25U G86U A98C C99U A121G", "polymerase ribozyme fitness (log ratio)": "≤ -4.2"}
{"variant": "G25U U31A A73U A107C A113G G141A", "polymerase ribozyme fitness (log ratio)": "≤ -4.2"}
{"variant": "G25U U33A C76U C93G U104G C105U U146A", "polymerase ribozyme fitness (log ratio)": "≤ -4.2"}
{"variant": "G25U U44G U45A U56A G80A C85U A97U", "polymerase ribozyme fitness (log ratio)": "≤ -4.2"}
{"variant": "G25U U45A G83C A107U U109C", "polymerase ribozyme fitness (log ratio)": "≤ -4.2"}
{"variant": "G25U U45G U90C C95A A97C", "polymerase ribozyme fitness (log ratio)": "≤ -4.2"}
{"variant": "G25U U55A C72G C93G G140A", "polymerase ribozyme fitness (log ratio)": "≤ -4.2"}
{"variant": "G25U U90G C96G A106U C123G", "polymerase ribozyme fitness (log ratio)": "≤ -4.2"}
{"variant": "G25U U134G G141A", "polymerase ribozyme fitness (log ratio)": "≤ -4.2"}
{"variant": "A26C A30C G68A G86U G88C A138C", "polymerase ribozyme fitness (log ratio)": "≤ -4.2"}
{"variant": "A26C A40U C85U C96G G143A", "polymerase ribozyme fitness (log ratio)": "≤ -4.2"}
{"variant": "A26C A41C C57G", "polymerase ribozyme fitness (log ratio)": -3.4}
{"variant": "A26C A41U G81C G88A C116U U135C", "polymerase ribozyme fitness (log ratio)": "≤ -4.2"}
{"variant": "A26C A47C U77C U102C G117C", "polymerase ribozyme fitness (log ratio)": "≤ -4.2"}
{"variant": "A26C A49C G58C A73U A106G A138U G143U", "polymerase ribozyme fitness (log ratio)": "≤ -4.2"}
{"variant": "A26C A73U C93G C105G G143A U151A", "polymerase ribozyme fitness (log ratio)": "≤ -4.2"}
{"variant": "A26C A107G A122G G133U U139C A147C", "polymerase ribozyme fitness (log ratio)": "≤ -4.2"}
{"variant": "A26C C27A G46U G58U C85U C105G", "polymerase ribozyme fitness (log ratio)": "≤ -4.2"}
{"variant": "A26C C27G C51G G83C A89C A138G A142U", "polymerase ribozyme fitness (log ratio)": "≤ -4.2"}
{"variant": "A26C C27U U53A G59A C95U A97U C118G C131U C132A", "polymerase ribozyme fitness (log ratio)": "≤ -4.2"}
{"variant": "A26C C32A C57G C75A", "polymerase ribozyme fitness (log ratio)": "≤ -4.2"}
{"variant": "A26C C32A G84U A98C C123A", "polymerase ribozyme fitness (log ratio)": "≤ -4.2"}
{"variant": "A26C C32G C57G", "polymerase ribozyme fitness (log ratio)": "≤ -4.2"}
{"variant": "A26C C43U A52G G71C A97G", "polymerase ribozyme fitness (log ratio)": "≤ -4.2"}
{"variant": "A26C C51U A52C G59C", "polymerase ribozyme fitness (log ratio)": "≤ -4.2"}
{"variant": "A26C C51U A66G U111A A120U U146C", "polymerase ribozyme fitness (log ratio)": "≤ -4.2"}
{"variant": "A26C C54U C85G C87U U111C G133C", "polymerase ribozyme fitness (log ratio)": "≤ -4.2"}
{"variant": "A26C C57A A60C G88A U109G A110G C118G", "polymerase ribozyme fitness (log ratio)": -3.98}
{"variant": "A26C C57A U135G", "polymerase ribozyme fitness (log ratio)": "≤ -4.2"}
{"variant": "A26C C57G G80A", "polymerase ribozyme fitness (log ratio)": -4.09}
{"variant": "A26C C63U A64G G83A A91G C129G U139C G141C G143U", "polymerase ribozyme fitness (log ratio)": "≤ -4.2"}
{"variant": "A26C C75A C87A", "polymerase ribozyme fitness (log ratio)": "≤ -4.2"}
{"variant": "A26C C85U G94A A115U G141A U144C", "polymerase ribozyme fitness (log ratio)": "≤ -4.2"}
{"variant": "A26C C93G C114U", "polymerase ribozyme fitness (log ratio)": -4.19}
